# Experimental data from PubChem BioAssay AID1347417 (National Center for Advancing Translational Sciences (NCATS), 2020).
# The whole screen tested about 120,000 compounds, of which about 5,300 (4.4%) were called active. Inconclusive means that the source gave no clear call. Such entries were picked first, then a sample of the others. Calls follow the shape of the dose curve; as a rule, active = well fitted inhibition curve with a large enough effect; inconclusive = small, poorly fitted or top-dose-only effect; inactive = no such curve, though single readings can be large or run the other way. A potency beside an inconclusive call is a rough fit, not a confirmed value.
# Experiment: qHTS Primary assay for Inhibitors of Plasmodium falciparum Dd2 growth in vitro; also: nearly all actives have a fitted effect of over 65% in size;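 as to activity, negative = inhibition: plate controls were DMSO vehicle for no effect and reference drug for full effect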
# Conditions: P. falciparum Dd2 growth, SYBR Green, 72 h; activity, negative = inhibition: at 28.9 µM (top of the series) unless noted; series mostly up to 28.9 µM
# Procedure, shortened: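 Infected erythrocytes (Dd2, 0.3% parasitemia, 2.5% hematocrit final) are added to compound in RPMI-1640/Albumax II medium, grown 72 h at 37C in low oxygen, then lysed with saponin/Triton-X containing SYBR Green and read by fluorescence.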
# Potency is read from the fitted curve at half-maximal effect; tags tell the direction and shape of the fitted curve.
Structure (SMILES),Potency,"activity, negative = inhibition"
Cc1ccc(C(=O)NC2CCN(c3nc4ncccc4o3)CC2)cc1,"inconclusive: 11.2 µM [inhibitor, single point]",–
CNC(=O)c1cccnc1N1CC2CC(C1)[C@H]1CCCC(=O)N1C2 (stereo partly drawn),inactive,–
COc1ccc2[nH]c3c(c2c1)CCNC31CCN(C2CCCC2)CC1,inactive,–
Cc1ccc(S(=O)(=O)c2nc(S(=O)(=O)c3ccccc3)sc2NCCCOC(C)C)cc1,"inconclusive: 0.224 µM [inhibitor, full curve, poor fit]",–
COc1ccc(NC(=O)c2oc3ccccc3c2NC(=O)Cc2coc3c(C)c(C)ccc23)cc1,"inconclusive: 17.8 µM [inhibitor, single point]",–
COc1ccccc1C(=O)N1CCC2CC(=O)NCCC2C1 (stereo not drawn),inactive,–
O=C1C2CN(Cc3ccncc3Cl)CCC2OCCN1Cc1ccccc1 (stereo not drawn),inactive,–
COc1ccc(-c2nc3cc(NC(=O)CSc4ccc(C)cc4)ccc3o2)cc1,"inconclusive: 10 µM [inhibitor, single point]",–
CCOc1ccc2c(n1)CCN(C(=O)Cc1ccccc1)C2,"inconclusive: 7.08 µM [inhibitor, partial curve, poor fit]",–
CCc1cc2c(cc3c(=O)n(CCCC(=O)NCc4cccc(Cl)c4)ncn32)s1,"inconclusive: 17.8 µM [inhibitor, single point]",–
Cc1cc2c(n1-c1ccc(C(=O)NCc3ccccc3Cl)cc1)CCCC2,"inconclusive: 14.1 µM [inhibitor, single point]",–
OCCOCCn1cnc(-c2ccccc2)c1-c1ccc(-n2cccn2)cc1,inactive,–
O=C(c1cccnc1)N1CCN2C(=O)N(C3CCCCC3)C[C@H]2C1,inactive,–
O=C1[C@@H]2C[C@@H](O)CN2C2(CN(Cc3cccc(OC(F)(F)F)c3)C2)C(=O)N1Cc1cccc(Cl)c1,"inconclusive: 2.24 µM [inhibitor, full curve, poor fit]",–
O=C(CN1C(=O)CCn2nc(-c3ccccc3)cc21)NCc1ccc(Cl)cc1,"inconclusive: 8.91 µM [inhibitor, partial curve]",–
Cc1cccc(CN2CC(N(Cc3cccnc3)S(C)(=O)=O)C2)c1,"inconclusive: 17.8 µM [inhibitor, single point]",–
CCN(CC)CCCNC(=O)Cc1csc2nc(-c3ccc(Cl)cc3)cn12,active: 8.91 µM,–
CN(Cc1cccnc1)c1ccc2ncc(Nc3ccc(C(F)(F)F)cc3)n2n1,"inconclusive: 7.08 µM [inhibitor, partial curve, poor fit]",–
Cc1cccc(-c2noc([C@@H]3Cc4nc[nH]c4CN3C(=O)NC3CCCCC3)n2)c1,"inconclusive: 3.98 µM [inhibitor, partial curve, poor fit]",–
COc1cccc(NC(=O)CN(CCc2ccccc2)S(=O)(=O)c2ccc(Cl)cc2)c1,inactive,–
COc1ccc(CNC(=O)c2ccc3c(c2)N(Cc2c(F)cccc2Cl)C(=O)CS3)cc1,"inconclusive: 12.6 µM [inhibitor, single point]",–
COCC1CN(C)CC12CCN(S(=O)(=O)c1ccc3c(c1)OCCO3)CC2 (stereo not drawn),"inconclusive: 6.31 µM [inhibitor, partial curve, poor fit]",–

Structure (SMILES),Potency,"activity, negative = inhibition"
Cc1cnc(C(=O)N[C@@H]2CCC[C@@H]2C(=O)N2CCC(Cc3ccccc3)CC2)cn1,"inconclusive: 0.501 µM [inhibitor, full curve, poor fit]",–
OCc1ccc(-c2cc3c(ccn3Cc3cccnc3)c(C3=CCOCC3)n2)cc1,"inconclusive: 11.2 µM [inhibitor, single point]",–
Cc1ccc(C(=O)NC2CCN(c3cc(-c4ccccc4)[nH]n3)C2)cc1C (stereo not drawn),"inconclusive: 11.2 µM [inhibitor, single point]",–
Cc1ccccc1NC(=O)N1c2ccccc2CC1c1noc(C2CCOCC2)n1 (stereo not drawn),inactive,–
Cc1cccc(CC(=O)N2CCN(Cc3ccc(=O)n(C)c3)CC2)c1,inactive,–
COc1ccc(-c2cc(-c3cnc4[nH]ccc4c3)cn3cncc23)cc1,active: 6.31 µM,–
COc1cc(=O)n2c(c1C(=O)NCc1ccccc1Cl)CCCC2,"inconclusive: 20 µM [inhibitor, single point]",–
Cc1noc(-c2cccc(OC3CN(S(=O)(=O)c4cn(C)cn4)C3)c2)n1,"inconclusive: 0.891 µM [inhibitor, full curve, poor fit]",–
Cn1nnnc1SCCNCc1cc(Br)ccc1OCc1ccccc1Cl,"inconclusive: 7.94 µM [inhibitor, single point]",–
Cc1cccc(CN2CCNc3cc(Nc4cccnc4)ncc3C2)c1,active: 5.62 µM,–
Fc1ccc(-c2cnc([C@@H]3COCCN3Cc3cnc4ccccc4c3)[nH]2)c(F)c1,"inconclusive: 14.1 µM [inhibitor, single point]",–
Cn1cc(CN2CCCCCNC(=O)[C@@H]3CCC[C@@H]32)c2ccccc21,"inconclusive: 7.94 µM [inhibitor, partial curve]",–
COCc1cn(C[C@H]2C[C@@H](NC(=O)c3cc(C)on3)[C@H](O)[C@@H]2O)nn1,inactive,–
Cc1cc(C)n(CC(=O)N2CCC3(CC2)CC(N2CCN(C(C)C)CC2)CCO3)n1 (stereo not drawn),"inconclusive: 2.51 µM [inhibitor, single point]",–
COc1ccc(NC(=O)NC2COc3ccccc3C2)cc1Cl (stereo not drawn),"inconclusive: 6.31 µM [inhibitor, partial curve]",–
Cc1cccc(NC(=O)c2cnc(-c3ccccc3)nc2-c2ccncc2)c1C,inactive,–
COCC1CN(C)CC12CCN(S(=O)(=O)c1ccc(F)c(Cl)c1)CC2 (stereo not drawn),"inconclusive: 2 µM [inhibitor, full curve, poor fit]",–
COc1ccc(CN2CC[C@H]3COC(=O)N3c3cc(F)ccc3C2)cc1,inactive,–
O=C(Cn1c(=O)n(-c2ccccc2)c(=O)c2ccc(C(=O)NCc3ccc4c(c3)OCO4)cc21)Nc1ccc(Br)cc1F,active: 8.91 µM,–
OCC1(CN2CCCC2)CCN(Cc2cccc3cc[nH]c23)CC1,"inconclusive: 3.55 µM [inhibitor, partial curve, poor fit]",–
Cn1c(=O)c2c(SCC(=O)NCC3CCCO3)nc(-c3ccccc3F)nc2n(C)c1=O (stereo not drawn),–,inconclusive: -57.8% [inhibitor] [at 0.594 µM]
